Experimental data as given in publication PMC6212790.
Some of the results follow. At the low end of the ranking, values are background and their order means little.

target: T1, GST-Rok (full length) (UniProt O34857); assay: protein binding microarray; settings: Rok is a gene silencer of Bacillus subtilis; high values mean tight binding; most listed sequences are background and not binding sites; double strand, one strand shown;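 further: rank score from −0.5 (least bound) to 0.5 (best bound)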
T1 sequence: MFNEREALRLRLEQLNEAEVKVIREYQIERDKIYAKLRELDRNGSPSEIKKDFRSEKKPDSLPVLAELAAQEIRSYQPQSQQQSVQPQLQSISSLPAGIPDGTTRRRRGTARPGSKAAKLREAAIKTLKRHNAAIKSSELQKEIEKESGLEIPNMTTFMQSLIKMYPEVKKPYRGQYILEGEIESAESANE

Sequence	binding signal
GTCCCCTA	-0.324 E-score
AGGACGTG	-0.000597 E-score
ATGGTATG	0.0823 E-score
CTTCCACA	0.0321 E-score
CGGGGGCA	-0.398 E-score
ATTGCACA	0.0502 E-score
ACCATCAA	-0.18 E-score
CACGCTAA	0.0793 E-score
CCGAATAA	0.118 E-score
AAATAACA	0.202 E-score
CCTCAGTC	-0.396 E-score
AGACGCTC	-0.102 E-score
CACCTAGA	0.0454 E-score
ACGATTCC	0.0729 E-score
AAGCGCTA	0.147 E-score
ATACTGGC	0.0319 E-score
GACCTCGA	-0.0759 E-score
AACTAAAT	0.362 E-score
ATGGAGCA	-0.185 E-score
CGGCTCGA	-0.0686 E-score
ATAGACTG	0.0799 E-score
GGCCCCCC	-0.455 E-score
ACTTCGAA	0.0934 E-score
ACACGACT	0.00806 E-score
CATAGATG	0.203 E-score

Sequence	binding signal
AATCGGGA	0.0322 E-score
GTTTACAA	0.174 E-score
AAACGGCA	-0.0848 E-score
CGTGTTGC	0.00225 E-score
CCCGAGTA	-0.211 E-score
ACCGCGTC	-0.0941 E-score
CCTCAGCG	-0.0631 E-score
GAGGTCCC	-0.335 E-score
GGCCTTAC	-0.147 E-score
GCGCCACA	-0.251 E-score
CTTTAGGA	-0.0742 E-score
ATGGCAAC	-0.194 E-score
AGTAGCGA	0.181 E-score
CTGCTGAC	-0.217 E-score
AATACCGC	0.251 E-score
AGTAGTGG	0.203 E-score
ACCTGTAT	0.117 E-score
GAAATCGC	0.00351 E-score
CTGCCGTC	-0.38 E-score
CGCCGTGA	-0.062 E-score
CTTGAAGA	-0.175 E-score
CGTCAAAA	-0.00138 E-score
CACGACAC	-0.146 E-score
ATATTAGA	0.24 E-score
AAAGTTGG	0.032 E-score

Sequence	binding signal
CTGATGTC	0.0198 E-score
AATATGAG	-0.0602 E-score
AGATACTG	0.113 E-score
AACGCTAC	0.171 E-score
AAAGGAAT	0.0124 E-score
TCTACGCA	-0.00311 E-score
GGAGATCC	-0.242 E-score
CTAATAAA	0.171 E-score
GAGCATAC	-0.128 E-score
AGAAGCGG	-0.201 E-score
CTGTGGAC	-0.156 E-score
GCCTACAC	0.00486 E-score
CAGACGCA	-0.0371 E-score
GGGTAAAA	0.184 E-score
AGGTAGCC	-0.0813 E-score
AATCAAGC	0.0332 E-score
CCTTGTCG	-0.161 E-score
GTCGGTAA	0.141 E-score
CCGCTTTA	-0.0867 E-score
TGTTGGAA	-0.0347 E-score
AAGGCCAG	-0.199 E-score
CCGAACAG	-0.0433 E-score
ATGGTCTC	-0.103 E-score
CGCCGCAC	-0.229 E-score
ACCACGGT	0.114 E-score

Sequence	binding signal
CCCTGGAG	-0.208 E-score
GAGTCAGC	0.055 E-score
ACTTATCC	-0.0862 E-score
AGTAAGAC	0.078 E-score
TTGCGCAA	-0.0529 E-score
ACTGCTGC	-0.00253 E-score
CATGGTTA	0.126 E-score
TCATACGA	-0.0601 E-score
ACGTAGCA	0.0492 E-score
AGTTAGCC	0.186 E-score
ATGCTCGC	-0.171 E-score
GATCGTCA	-0.0172 E-score
AGGCTATA	-0.0265 E-score
GCCGAATA	-0.0225 E-score
TGGTCGAA	-0.11 E-score
GATTATCC	-0.0122 E-score
GCGGGTTA	-0.053 E-score
AAGCCCAG	-0.197 E-score
CAAAGGTA	0.077 E-score
AAATTTGG	0.035 E-score
AAACAAAT	-0.0568 E-score
ACAGGACA	-0.0266 E-score
CGTGTAGA	0.127 E-score
AATGACGC	-0.12 E-score
ACAGGGCA	-0.257 E-score

Sequence	binding signal
GATGACTA	0.076 E-score
AATAGCGG	0.114 E-score
CTGTTACA	0.103 E-score
AAGGGCCT	-0.381 E-score
CCAGTCAC	-0.133 E-score
ACTAACCC	-0.0267 E-score
ACTGTCTG	-0.0539 E-score
CCAGGCGG	-0.412 E-score
AAATGTGC	0.146 E-score
AAGCGAGA	-0.309 E-score
ATGTTTAG	0.0567 E-score
TAGTTATA	0.382 E-score
ATCGCTAA	0.148 E-score
ACCGTACT	0.0822 E-score
TCCCCTCA	-0.389 E-score
ATCTACTA	0.446 E-score
ATGATCAA	0.12 E-score
AGTCCAGG	-0.14 E-score
ACTCACCT	-0.0165 E-score
TAGTCCCA	0.0415 E-score
CTCGGATC	0.0657 E-score
AACTGGCG	-0.0525 E-score
ATTCGCAA	0.0676 E-score
AGGCTCCG	-0.313 E-score
CCAGGATC	0.0249 E-score

Sequence	binding signal
AGGTGGCC	-0.339 E-score
AGATTACT	0.248 E-score
ACACATTG	0.0472 E-score
GATCGCCA	0.0261 E-score
ACCTGCCT	-0.214 E-score
AAAGTAGG	0.196 E-score
CATACCAC	0.302 E-score
GCCAATCA	-0.146 E-score
AAAGGGAC	-0.219 E-score
AATGGAAA	0.14 E-score
ACGTACGC	0.0808 E-score
CATGCGCG	-0.197 E-score
AAGGGTGG	-0.184 E-score
CATTCGCG	-0.009 E-score
CTCTAAGC	-0.239 E-score
GATAACGC	0.0798 E-score
ACTCCGTC	-0.105 E-score
CTAATTAA	0.233 E-score
ACTCTTCT	-0.0347 E-score
ATACGCAC	0.23 E-score
GACTAAAA	0.123 E-score
ATGGGCGG	-0.362 E-score
GACGCCTA	-0.241 E-score
CATGTGGG	-0.139 E-score
GACTATAC	0.165 E-score

Sequence	binding signal
CCCATGGC	-0.375 E-score
CAATCCAA	-0.0175 E-score
GAGCTAGA	0.0438 E-score
ACACAACG	0.0586 E-score
CTTAGGGA	-0.0723 E-score
AAGTCACT	-0.0315 E-score
CCGTACAA	0.188 E-score
CCGTCTAG	-0.225 E-score
CACTCCAC	-0.158 E-score
CGTCATAA	0.104 E-score
GACACCCA	-0.218 E-score
CTGCGTAC	-0.0064 E-score
CGGCGTCA	-0.14 E-score
ATAAGTGC	0.218 E-score
CTGCCTGC	-0.376 E-score
CTGGATGA	-0.0571 E-score
AGGGCTTC	-0.393 E-score
ACAATCCG	-0.0704 E-score
TCCTAGGA	0.00233 E-score
AGCAGAAT	0.0225 E-score
ACGTCTGA	-0.13 E-score
ATGATGGA	-0.0583 E-score
